According to PubChem BioAssay AID1479 (National Center for Advancing Translational Sciences (NCATS), 2009):
The campaign covered roughly 280,000 compounds. About 820 (0.29%) were called active. Inconclusive results, whose numbers are uncertain, are shown with a selection of clear calls. The call rests on the fitted dose curve; in most records, active means well fitted curve in either direction with a large enough effect; inconclusive means small, poorly fitted or top-dose-only effect; inactive means flat fitted curve, though single readings scatter. No potency is given beside an inconclusive call; the fits are too rough.

assay: Total Fluorescence Counterscreen for Inhibitors of the Interaction of Thyroid Hormone Receptor and Steroid Receptor Coregulator 2; details: TRb/SRC2 Texas Red total fluorescence interference; series mostly up to 106 µM; fluorescence change, negative = quenching: at the top concentration
Source text: NIH Molecular Libraries Probe Production Network [MLPCN]
NIH Chemical Genomics Center [NCGC]
Assay Provider: R. Kip Guy, St. Jude Children's Research Hospital
Thyroid receptor (TR) regulates many homeostatic processes including basal metabolism, cardiovascular function, body weight, and lipid trafficking. TR modulators are potential therapeutics for obesity and hyperlipidemias but current thyroid analogs have undesirable side effects, particularly cardiac stimulation. To identify inhibitors that specifically prevent the interaction of TR with the steroid receptor […] 2 (SRC2), a fluorescence polarization assay was screened. This assay detects interaction of the ligand-binding domain of human TRb with a Texas Red labeled SRC2 peptide, corresponding to a 20 amino acid region of the nuclear receptor interaction domain (Arnold et al., 2006). Total fluorescence (555 nm excitation and 632 nm emission) was measured to identify potential fluorescent and light absorbing compounds. Such compounds may be artifacts that interfere with the fluorescence polarization assay.
Arnold, L. A.; Estebanez-Perpina, E.; Togashi, M.; Shelat, A.; Ocasio, C. A.; McReynolds, A. C.; Nguyen, P.; Baxter, J. D.; Fletterick, R. J.; Webb, P.; Guy, R. K. A high-throughput screening method to identify small molecule inhibitors of thyroid hormone receptor coactivator binding. Sci STKE 2006, p 13.
NCGC Assay Protocol Summary:
For screening, 5 uL/well 0.6 uM TRb and 20 nM SRC2 Texas Red in protein buffer (20mM Tris hydrochloride, 100mM NaCl, 10% glycerol, 1mM EDTA, 0.01% NP-40, 1mM DTT, 1uM T3 and 5% DMSO) was dispensed into black solid 1536-well plates (Grenier) using a solenoid-based dispenser. Following transfer of 23 nL compound or DMSO vehicle by a pin tool, the plates were centrifuged 15 s at 1000 RPM and incubated 5 hr at ambient temperature. The plates were read by an Envision (Perkin Elmer) to detect fluorescence polarization of SRC2 Texas Red (555 nm excitation and 632 nm emission). Data were normalized to unbound (all components except TRb) and bound SRC2 Texas Red controls. Total fluorescence (TF) was calculated as follows: TF = S + 2P where S and P are fluorescence readings in the parallel and perpendicular channels, respectively.
Keywords: NIH Roadmap, MLPCN, MLI, MLSMR, qHTS, NCGC, qHTS, thyroid hormone receptor, steroid receptor coactivator, fluorescence polarization
On the % scale 0 is the no-effect control and ±100 the full control effect; potency means the concentration at half of the fitted maximal effect; tags describe the fitted curve by direction and shape or compound fluorescence and quenching.

Question: With `CN1C(=O)/C(=C\c2cc(N=Nc3ccccc3)ccc2O)SC1=S` as the compound, how does the “fluorescence change, negative = quenching” value (“fluorescence change” below) read?
Answer: Its value is inactive: 8.67%.

Question: For `O=C(NCCC1=CCCCC1)c1ccc2c(c1)N(Cc1ccccc1)C(=O)c1ccccc1S2=O` (configuration not stated), which Potency is on record?
Answer: The Potency was inconclusive [falling, full curve, poor fit].

Question: With `CCc1nn(CC(=O)NCCOC)c(=O)c2cc3cc(F)ccc3n12` as the compound, how does the “fluorescence change” value read?
Answer: The value was inactive: -11.6%.

Question: With `Cc1cccc(NC(=O)Cn2c(=O)c3cccn3c3ccccc32)c1C` as the compound, how does the “fluorescence change” value read?
Answer: The value was inactive: 5.28%.

Question: For `COc1ccc2nc(Nc3sc4c(c3C(N)=O)CCCC4)sc2c1`, which Potency is on record?
Answer: The Potency was inconclusive [falling, full curve, poor fit].

Question: For `COc1ccc(C(=O)Nc2nc(-c3ccc(OC)cc3)c(-c3ccc([N+](=O)[O-])cc3)s2)cc1`, which Potency is on record?
Answer: The Potency was inconclusive [rising, single point].

Question: Which Potency does the source give for `CCOc1ccccc1NC(=O)Cn1c(=O)n(Cc2cccs2)c(=O)c2cccnc21` here?
Answer: The Potency was inconclusive [quencher, full curve].

Question: For `COc1ccc(-n2c(=O)c3ccccc3n(Cc3ccccc3Cl)c2=O)cc1`, which Potency is on record?
Answer: Its Potency is inconclusive [falling, full curve, poor fit].

Question: Which “fluorescence change” value does the source give for `Cc1ccc(NC(=O)c2ccc(NCC3CCCO3)c([N+](=O)[O-])c2)cc1Cl` (configuration not stated) here?
Answer: Its value is inactive: -1.71%.

Question: With `Nc1nc2n[nH]nc2c(=O)[nH]1` as the compound, how does the Potency read?
Answer: The Potency was inconclusive [quencher, partial curve].

Question: Which Potency does the source give for `CC(=O)N1N=C(c2ccc(C)cc2)CC1c1cn(-c2ccccc2)nc1-c1cccs1` (configuration not stated) here?
Answer: Its Potency is active: 100 µM [quencher].

Question: With `CCOC(=O)c1c(N)n(-c2cccc(C)c2C)c2nc3ccccc3nc12` as the compound, how does the Potency read?
Answer: Its Potency is inconclusive [falling, full curve, poor fit].

Question: For `Cn1c(=O)cc(OCC(=O)NCc2ccc(F)cc2Cl)c2ccccc21`, which Potency is on record?
Answer: The Potency was inconclusive [falling, full curve, poor fit].

Question: For `O=C(Nc1ccccc1C(=O)OCC(=O)c1c[nH]c2ccccc12)c1ccco1`, which Potency is on record?
Answer: Its Potency is inconclusive [falling, partial curve, poor fit].

Question: For `CCOc1ccccc1NC(=O)CSc1nc2c(oc3ccccc32)c(=O)n1Cc1ccco1`, which Potency is on record?
Answer: The Potency was inconclusive [quencher, full curve].

Question: With `COc1ccccc1CNC(=O)CS(=O)Cc1nc(-c2ccc(OC)c(OC)c2)oc1C` (configuration not stated) as the compound, how does the Potency read?
Answer: The Potency was inconclusive [falling, full curve, poor fit].

Question: Which Potency does the source give for `Cc1ccc2nc(-c3ccc(NC(=O)COc4ccc(Cl)c(C)c4)cc3)sc2c1` here?
Answer: The Potency was inconclusive [falling, partial curve, poor fit].

Question: With `Cc1c(NC(=O)c2cc(=O)c3cc(Cl)ccc3o2)c(=O)n(-c2ccccc2)n1C` as the compound, how does the Potency read?
Answer: The Potency was inconclusive [quencher, full curve].

Question: With `COc1ccc2oc(-c3ccc(C)c(NC(=O)Cc4ccc(Cl)cc4)c3)nc2c1` as the compound, how does the Potency read?
Answer: Its Potency is inconclusive [quencher, full curve].

Question: Which Potency does the source give for `CCC(=O)Nc1nnc(S(=O)(=O)N2CCc3ccccc32)s1` here?
Answer: Its Potency is inconclusive [falling, partial curve, poor fit].

Question: Which Potency does the source give for `CCOC(=O)/C(C#N)=C/c1cn(CCOc2ccc(OC)cc2)c2ccccc12` here?
Answer: The Potency was inconclusive [falling, full curve, poor fit].

Question: With `CCc1ccc(C(=O)Nc2ccc3nn(-c4ccc(C)c(Cl)c4)nc3c2)cc1` as the compound, how does the Potency read?
Answer: The Potency was inconclusive [quencher, full curve].

Question: For `COc1cc(-c2nnc(SCCOc3ccc(C)c(Cl)c3)o2)cc(OC)c1OC`, which “fluorescence change” value is on record?
Answer: Its value is inactive: 0.114%.

Question: For `CCOC(=O)CSc1nc2ccc(NC(=O)c3ccccc3)cc2s1`, which Potency is on record?
Answer: The Potency was inconclusive [quencher, full curve].

Question: For `CC(C)C[C@H](NC(=O)[C@H](CC(C)C)NC(=O)[C@H](Cc1ccccc1)NC(=O)[C@@H](N)CO)C(=O)N[C@@H](CCCN=C(N)N)C(=O)N[C@@H](CC(N)=O)C(=O)O`, which “fluorescence change” value is on record?
Answer: Its value is inactive: 2.5%.

Question: With `O=[N+]([O-])c1ccc(O)c(/C=N/Nc2nn[nH]n2)c1` as the compound, how does the “fluorescence change” value read?
Answer: Its value is inactive: -5.58%.

Question: Which “fluorescence change” value does the source give for `O=C(CSc1nc2ccccc2n1Cc1ccccc1Cl)NCc1ccccc1` here?
Answer: The value was inactive: -2.21%.

Question: For `O=C(Nc1cccc(S(=O)(=O)NC2=NCCC2)c1)c1cc(-c2ccco2)nc2ccccc12`, which Potency is on record?
Answer: The Potency was inconclusive [quencher, partial curve].

Question: Which Potency does the source give for `CC(=O)N1CCCc2cc(S(=O)(=O)N(C)CC(=O)Nc3ccc(Cl)cc3C)ccc21` here?
Answer: Its Potency is inconclusive [quencher, full curve].

Question: Which “fluorescence change” value does the source give for `Cc1cc(Nc2ncc(Cl)cc2Cl)n[nH]1` here?
Answer: Its value is inactive: -3.34%.

Question: With `COc1ccc(NC(=O)C(Cl)=C(Cl)Cl)cn1` as the compound, how does the “fluorescence change” value read?
Answer: Its value is inactive: 0.37%.

Question: For `COc1ccccc1N1CCN(C(=O)c2cc(-c3ccc(F)cc3)on2)CC1`, which Potency is on record?
Answer: The Potency was inconclusive [falling, full curve, poor fit].

Question: With `CCOC(=O)c1c(NC(=O)C2COc3ccccc3O2)sc2c1CCN(Cc1ccccc1)C2` (configuration not stated) as the compound, how does the Potency read?
Answer: The Potency was inconclusive [quencher, partial curve].

Question: With `CCCCC(=O)NC(=S)NNC(=O)c1ccc(OC)cc1` as the compound, how does the “fluorescence change” value read?
Answer: The value was inactive: -4.31%.

Question: Which Potency does the source give for `CC1(C)Cc2c(c(-c3ccco3)[nH]c(=O)c2C#N)CS1` here?
Answer: The Potency was inconclusive [fluorescent, partial curve].

Question: Which Potency does the source give for `Cc1c(C(=O)NCCc2ccc(Cl)cc2)sc2nc3n(c(=O)c12)CCCC3` here?
Answer: The Potency was inconclusive [falling, full curve, poor fit].

Question: Which Potency does the source give for `O=C1c2cccc3cc([N+](=O)[O-])cc(c23)C(=O)N1/N=C/c1ccc(O)cc1O` here?
Answer: The Potency was inconclusive [quencher, full curve].

Question: With `O=C(O)c1ccc(N/N=C/c2cc3ccccc3nc2Cl)cc1` as the compound, how does the “fluorescence change” value read?
Answer: Its value is inactive: -15.5%.

Question: With `CC(C)(C)C(=O)NC1(C(F)(F)F)C(=O)Nc2c1c(=O)[nH]c(=O)n2-c1ccccc1` (configuration not stated) as the compound, how does the “fluorescence change” value read?
Answer: The value was inactive: 2.62%.

Question: For `CCC1CN(C(=O)Nc2ccc(C)c(F)c2)c2ccccc2S1` (configuration not stated), which Potency is on record?
Answer: Its Potency is inconclusive [quencher, full curve].

Question: Which Potency does the source give for `Cc1cc(C)cc(NS(=O)(=O)c2ccc3[nH]cc(C(=O)NCc4ccccc4Cl)c(=O)c3c2)c1` here?
Answer: Its Potency is inconclusive [falling, full curve, poor fit].

Question: With `O=C(Nc1ccccc1)/C(=C/c1ccc([N+](=O)[O-])cc1)NC(=O)c1ccccc1` as the compound, how does the Potency read?
Answer: The Potency was inconclusive [falling, full curve, poor fit].
